Data taken from PubChem BioAssay AID1468 (National Center for Advancing Translational Sciences (NCATS), 2008).
Where “and” joins values, the source holds several entries; their conditions need not be identical. Identical values can stand only once. Hit rate of the full screen: of about 280,000 compounds, about 1,100 (0.39%) were called active. The inconclusive results got no clear call from the source; some entries with a clear call stand among them for comparison. Calls come from the whole dose curve; as a rule, active = well fitted inhibition curve with a large enough effect; inconclusive = small, poorly fitted or top-dose-only effect, or effect the other way; inactive = flat fitted curve, though single readings scatter. Potencies beside an inconclusive call are fits to weak or partial responses and may not hold up.

biological target: Microtubule-associated protein tau (Homo sapiens) (UniProt P10636); assay: qHTS for Inhibitors of Tau Fibril Formation, Fluorescence Polarization; conditions: K18 P301L tau heparin fibrillization, Alexa594 FP, 6 h; series mostly up to 57.7 µM; activity, negative = inhibition: at the top concentration; note: nearly all actives have a fitted effect of over 55% in size
Outline: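 Human tau K18 […] P301L fragment, 15 uM unlabeled plus 0.24 uM Alexa 594-labeled tau (final), with compound and 20 uM heparin in 100 mM sodium acetate pH 7; 6 hr at 37 C, then Alexa 594 FP read.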
% is set by controls: 0 for no effect and ±100 for the full control effect; potency is the fitted concentration of half-maximal effect; tags give direction and shape of the fitted curve.

Chain of UniProt P10636 (P10636 whole entry, looked up, the tested form may be a part): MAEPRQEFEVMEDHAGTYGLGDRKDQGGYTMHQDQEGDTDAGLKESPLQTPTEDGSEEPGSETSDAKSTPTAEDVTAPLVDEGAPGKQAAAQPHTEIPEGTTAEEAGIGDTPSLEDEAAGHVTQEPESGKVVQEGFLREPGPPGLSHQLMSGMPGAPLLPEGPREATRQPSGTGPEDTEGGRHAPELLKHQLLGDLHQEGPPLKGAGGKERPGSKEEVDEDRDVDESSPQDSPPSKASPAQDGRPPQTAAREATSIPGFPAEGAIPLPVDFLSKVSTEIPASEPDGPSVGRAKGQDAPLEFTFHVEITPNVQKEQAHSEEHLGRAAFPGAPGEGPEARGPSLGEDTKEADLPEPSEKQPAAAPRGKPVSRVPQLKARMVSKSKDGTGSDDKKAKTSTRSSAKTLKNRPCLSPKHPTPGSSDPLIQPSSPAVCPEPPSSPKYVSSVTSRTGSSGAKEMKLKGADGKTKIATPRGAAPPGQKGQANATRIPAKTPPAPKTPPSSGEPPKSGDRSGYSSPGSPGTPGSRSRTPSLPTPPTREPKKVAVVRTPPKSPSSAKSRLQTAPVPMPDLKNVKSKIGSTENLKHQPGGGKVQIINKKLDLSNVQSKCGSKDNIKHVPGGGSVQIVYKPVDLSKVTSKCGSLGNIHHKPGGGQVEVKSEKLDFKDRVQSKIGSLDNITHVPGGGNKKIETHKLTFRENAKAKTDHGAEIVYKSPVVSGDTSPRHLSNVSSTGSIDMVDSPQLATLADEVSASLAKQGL

| SMILES | Potency | activity, negative = inhibition |
| --- | --- | --- |
| Cc1ccc(NC(=O)c2cc(S(=O)(=O)NCCc3ccccc3)ccc2F)cc1Cl | inconclusive: 8.91 µM [inhibitor, partial curve] |  |
| CCCCNC(=O)c1ccc2c(c1)NC(=O)C(CS(=O)(=O)Cc1cccc(C)c1)N2 (stereo not given) | inconclusive: 39.8 µM [inhibitor, single point] |  |
| Cc1ccc(S(=O)(=O)c2cn(CC(=O)Nc3ccc4c(c3)OCO4)c3ccccc3c2=O)cc1 |  | inactive: 4.86% |
| Cc1cccc2sc(N(CCCN(C)C)C(=O)c3ccc(Cl)s3)nc12 | inconclusive: 22.4 µM [inhibitor, partial curve] and inconclusive: 39.8 µM [inhibitor, single point] |  |
| Oc1ccc(Cl)cc1CNc1ccc(Br)cn1 | inconclusive: 39.8 µM [inhibitor, single point] |  |
| O=C(NCc1ccco1)c1ccc(Cn2c(=S)[nH]c3ccccc3c2=O)cc1 | inconclusive: 0.1 µM [inhibitor, full curve, poor fit] |  |
| COc1nnc(-c2ccc(N3CCCCC3)c(NC(C)=O)c2)c2ccccc12 | inconclusive: 39.8 µM [inhibitor, single point] |  |
| COCCn1nnnc1C(c1cc2cc(C)ccc2[nH]c1=O)N1CCCCCC1 (stereo not given) | inconclusive: 22.4 µM [inhibitor, partial curve] |  |
| CSC1=NC(=O)/C(=C/c2ccc(SC)cc2)S1 | inconclusive: 25.1 µM [inhibitor, single point] |  |
| O=[N+]([O-])c1ccc(N2N=C(c3ccco3)CC2c2ccccc2)cc1 (stereo not given) | inconclusive: 7.94 µM [activator, partial curve] |  |
| CCC(=O)NNc1nc2c(F)cc(F)cc2s1 |  | inactive: -2.15% |
| CCN(C(=O)CSc1nnnn1-c1cc(C)ccc1OC)C1CCS(=O)(=O)C1 (stereo not given) | inconclusive: 5.01 µM [inhibitor, single point] |  |
| Oc1cc(OCc2ccccc2)ccc1-c1[nH]ncc1-c1ccccc1 | active: 25.1 µM |  |
| CCOc1ccc(-n2nc3c(Cl)nnc(C)c3c2C)cc1 | inconclusive: 3.55 µM [inhibitor, single point] |  |
| COc1cccc(NC(=O)Nc2ccc(C)c(Cl)c2)c1 | inconclusive: 17.8 µM [inhibitor, partial curve, poor fit] |  |
| COc1ccc(COc2ccsc2C(=O)Nc2ccc(Cl)cc2)cc1 | inconclusive: 17.8 µM [inhibitor, single point] |  |
| O=C(CN(Cc1ccccc1)S(=O)(=O)c1ccccc1)N/N=C/c1ccc2c(c1)OCO2 |  | inactive: -4.24% |
| COC(=O)CCC(=O)OC1(C)C(=O)C2=COC(c3ccc(OC)cc3)=CC2=C(Br)C1=O (stereo not given) | inactive and inconclusive: 20 µM [inhibitor, partial curve] |  |
| CCOc1ccc(C(C)NC(=O)C2CCC2)cc1 (stereo not given) |  | inactive: -4.56% |
| C=COCCNC(=O)Nc1ccc(Cl)cc1Cl | inconclusive: 44.7 µM [inhibitor, single point] |  |
| CCN(C(=O)c1coc(=O)c(Br)c1)c1ccc2c(c1)OCO2 | inconclusive: 39.8 µM [inhibitor, single point] |  |
| CCCN1C(=O)/C(=N\OCC(=O)NC23CC4CC(CC(C4)C2)C3)c2ccccc21 |  | inactive: 1.21% |

| SMILES | Potency | activity, negative = inhibition |
| --- | --- | --- |
| CCOc1ccc(/C=N/NC(=O)c2nnn(-c3nonc3N)c2COc2ccc(F)cc2)cc1 | inconclusive: 1.26 µM [inhibitor, partial curve, poor fit] |  |
| CCSc1nnc(NC(=O)c2cc(OC)c(OC)c(OC)c2)s1 | inconclusive: 7.08 µM [inhibitor, single point] |  |
| O=C(Nc1c(C(=O)Nc2ccc(F)cc2)oc2ccccc12)c1cc2ccccc2o1 | inconclusive: 17.8 µM [inhibitor, partial curve] |  |
| COc1ccc(Cn2c(=O)c3cccnc3n(CC(=O)Nc3ccc(C)c(F)c3)c2=O)cc1 | inconclusive: 11.2 µM [inhibitor, partial curve] |  |
| O=C(N/N=C/c1ccc[nH]1)c1ccncc1 | inconclusive: 22.4 µM [inhibitor, partial curve, poor fit] |  |
| Cc1ccc(C)c(CN2CCC(CNC(=O)Nc3ccc(Br)cc3F)CC2)c1 | inconclusive: 44.7 µM [inhibitor, single point] |  |
| N/C(=N\OC(=O)Nc1ccc(Cl)c(Cl)c1)c1ncc(C(F)(F)F)cc1Cl | inconclusive: 31.6 µM [inhibitor, single point] |  |
| CCn1c(N)nc2c1c(=O)n(C)c(=O)n2C |  | inactive: -3.71% |
| CCOC(=O)COc1c(Cl)cc(C2NC(=S)NC(c3ccccc3)=C2C(C)=O)cc1OC (stereo not given) |  | inactive: 6.24% |
| O=C(OCCN=C1NS(=O)(=O)c2ccccc21)C1CC(=O)N(c2ccc(Cl)cc2)C1 (stereo not given) | inconclusive: 8.91 µM [inhibitor, single point] |  |
| CC(=O)Oc1ccc(C(=O)[C@H]2[C@H]3C(=O)N(c4ccc(C)cc4C)C(=O)[C@H]3[C@@H]3C=CC=NN32)cc1 | inconclusive: 1.26 µM [inhibitor, full curve, poor fit] |  |
| COc1ccccc1C1c2[nH]c3ccccc3c2CCN1Cc1cnc(C)s1 (stereo not given) | inconclusive: 10 µM [activator, partial curve, poor fit] |  |
| CC(OC(=O)c1ccc(F)cc1)C(=O)Nc1nc(-c2cccc([N+](=O)[O-])c2)cs1 (stereo not given) |  | inactive: 7.1% |
| Cc1ccc(NC2(C#N)C(=O)Nc3ccccc32)cc1 (stereo not given) | inconclusive: 44.7 µM [inhibitor, single point] |  |
| COc1cccc(NC(=O)Cn2nnc(-c3nc(-c4ccccc4)no3)c2N)c1 | inconclusive: 5.01 µM [inhibitor, single point] |  |
| CCOC(=O)C1=C(Nc2ccc(Cl)cc2)OCC1=O |  | inactive: -9.57% |
| CCOc1ccc(C(=O)c2cn(CC(=O)Nc3ccc(F)cc3)c3cc4c(cc3c2=O)OCO4)cc1 | inconclusive: 4.47 µM [inhibitor, partial curve] |  |
| CCn1c2ccccc2c2cc(NC(=O)N3CCOCC3)ccc21 |  | inactive: 9.12% |
| CN(C)CCCN(C(=O)c1ccc(Br)s1)c1nc2ccc(F)cc2s1 | inconclusive: 25.1 µM [inhibitor, single point] |  |
| Cc1c(Cc2ccccc2)sc(NC(=O)/C=C/c2cccc3ccccc23)c1C(N)=O |  | inactive: -3.72% |
| CCOC(=O)c1c(C)c(C(=O)NCCc2ccccc2)c(C)n1C | inconclusive: 0.447 µM [inhibitor, full curve, poor fit] |  |
| Cc1ccc(-c2nc3cnccn3c2Nc2c(C)cccc2C)o1 | inconclusive: 2.82 µM [activator, partial curve, poor fit] |  |

| SMILES | Potency | activity, negative = inhibition |
| --- | --- | --- |
| COC(=O)C1=C(C)N(C)C(=O)NC1c1cc2c(cc1[N+](=O)[O-])OCO2 (stereo not given) | inconclusive: 31.6 µM [inhibitor, partial curve] |  |
| N#CC(C#N)=C(N)/C(C#N)=C/c1cc(O)c(O)c(O)c1 | inconclusive: 20 µM [inhibitor, partial curve] |  |
| Cc1nn(CC(=O)Nc2ccccc2C(F)(F)F)c(=O)c2cccn12 | inconclusive: 8.91 µM [inhibitor, single point] |  |
| COc1cccc(Cn2nnc(C(=O)Nc3cc(Cl)ccc3OC)c2N)c1 | inconclusive: 31.6 µM [inhibitor, partial curve] |  |
| CCOc1cc(/C=N/Nc2cc(C)nc(-n3nc(C)cc3C)n2)ccc1O | inconclusive: 4.47 µM [activator, partial curve, poor fit] |  |
| CCC(C)NC(=O)CN(c1ccc(OC)cc1)S(=O)(=O)c1ccc(NC(C)=O)cc1 (stereo not given) |  | inactive: -10.7% |
| Cc1nc2nc(SCC(=O)c3ccccc3)[nH]c2cc1Br | inconclusive: 44.7 µM [inhibitor, single point] |  |
| Cc1cc(Br)cc(C)c1OCCCCN(C)C |  | inactive: -4.72% |
| CCOc1ccc2nc(N3CCCC(C(=O)NCC4CCCO4)C3)sc2c1 (stereo not given) | inconclusive: 0.282 µM [inhibitor, partial curve, poor fit] |  |
| O=C(Nc1ccccc1Br)c1ccccc1-c1ccccc1 |  | inactive: -10.1% |
| CN(C)S(=O)(=O)c1cccc(C(=O)NCc2ccco2)c1 |  | inactive: 1.21% |
| COc1ccc(CNS(=O)(=O)c2cccc(S(=O)(=O)N3CCOCC3)c2)cc1 | inconclusive: 3.16 µM [inhibitor, partial curve, poor fit] |  |
| Cc1ccc(CSc2oc(-c3ccco3)nc2S(=O)(=O)c2ccc(C)cc2)cc1 | inconclusive: 7.08 µM [inhibitor, partial curve, poor fit] |  |
| Cc1ccc(S(=O)(=O)NC(=O)CSc2nc3ccccc3s2)cc1 |  | inactive: 3.57% |
| COc1cc(/C=C(\C#N)c2nc3ccccc3[nH]2)cc(Cl)c1OCc1ccccc1Cl | inconclusive: 11.2 µM [inhibitor, partial curve] |  |
| C=C(C)COc1ccc(-c2[nH]ncc2-c2ccc(OC)cc2)c(O)c1 | inconclusive: 39.8 µM [inhibitor, single point] |  |
| CN(C)CCCNC(=O)CCc1ncc(C(F)(F)F)cc1Cl | inconclusive: 44.7 µM [inhibitor, single point] |  |
| O=S(=O)(NN=C1CCCCCCC1)c1ccc(Br)cc1 | inconclusive: 22.4 µM [inhibitor, single point] |  |
| Oc1[nH]c2ccccc2c1N=NC(=S)NCCc1ccccc1 | inconclusive: 35.5 µM [inhibitor, single point] |  |
| Cc1cc2cc(C(c3nnnn3Cc3ccco3)N3CCc4ccccc43)c(=O)[nH]c2cc1C (stereo not given) | inconclusive: 31.6 µM [inhibitor, single point] |  |
| CCCCN(CCCNc1ncnc2nc[nH]c12)c1ccccc1 | inconclusive: 25.1 µM [activator, partial curve, poor fit] |  |
